Results on nine substances are retold here after PMC8287939.

Protein sequences, listed by entry. Tags and fused reporters are not part of them. Lines headed by an entry give the natural chain unless they say otherwise; changes in a name come on top.
UniProt P35637: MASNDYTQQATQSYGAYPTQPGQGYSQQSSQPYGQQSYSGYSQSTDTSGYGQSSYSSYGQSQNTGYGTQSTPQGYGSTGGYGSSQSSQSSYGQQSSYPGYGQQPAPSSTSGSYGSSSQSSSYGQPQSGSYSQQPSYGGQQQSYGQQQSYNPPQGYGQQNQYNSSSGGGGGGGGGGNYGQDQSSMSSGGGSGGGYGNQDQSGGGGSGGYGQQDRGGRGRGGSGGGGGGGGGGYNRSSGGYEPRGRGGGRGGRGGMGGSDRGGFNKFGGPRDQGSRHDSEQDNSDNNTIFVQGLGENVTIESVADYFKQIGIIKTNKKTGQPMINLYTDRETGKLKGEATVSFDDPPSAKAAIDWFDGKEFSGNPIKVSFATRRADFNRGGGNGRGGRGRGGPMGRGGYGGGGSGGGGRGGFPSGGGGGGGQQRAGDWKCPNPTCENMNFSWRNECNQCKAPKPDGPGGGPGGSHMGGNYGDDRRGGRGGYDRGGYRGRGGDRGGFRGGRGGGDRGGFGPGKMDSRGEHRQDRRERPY
UniProt Q16630: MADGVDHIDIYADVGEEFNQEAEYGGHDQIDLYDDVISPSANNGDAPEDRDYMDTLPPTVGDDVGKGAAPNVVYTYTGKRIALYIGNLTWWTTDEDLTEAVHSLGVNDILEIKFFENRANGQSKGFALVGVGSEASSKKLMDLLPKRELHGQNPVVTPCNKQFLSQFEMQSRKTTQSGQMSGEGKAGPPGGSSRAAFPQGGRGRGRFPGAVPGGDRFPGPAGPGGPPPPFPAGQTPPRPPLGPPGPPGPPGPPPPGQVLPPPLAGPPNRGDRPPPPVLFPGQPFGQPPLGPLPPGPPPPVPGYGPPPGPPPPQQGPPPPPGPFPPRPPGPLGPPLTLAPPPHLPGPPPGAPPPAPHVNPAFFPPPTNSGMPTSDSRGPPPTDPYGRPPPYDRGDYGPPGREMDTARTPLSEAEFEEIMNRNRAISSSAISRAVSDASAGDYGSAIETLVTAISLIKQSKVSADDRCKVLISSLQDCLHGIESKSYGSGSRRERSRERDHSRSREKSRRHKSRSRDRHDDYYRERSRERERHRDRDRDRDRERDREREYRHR
UniProt P51532: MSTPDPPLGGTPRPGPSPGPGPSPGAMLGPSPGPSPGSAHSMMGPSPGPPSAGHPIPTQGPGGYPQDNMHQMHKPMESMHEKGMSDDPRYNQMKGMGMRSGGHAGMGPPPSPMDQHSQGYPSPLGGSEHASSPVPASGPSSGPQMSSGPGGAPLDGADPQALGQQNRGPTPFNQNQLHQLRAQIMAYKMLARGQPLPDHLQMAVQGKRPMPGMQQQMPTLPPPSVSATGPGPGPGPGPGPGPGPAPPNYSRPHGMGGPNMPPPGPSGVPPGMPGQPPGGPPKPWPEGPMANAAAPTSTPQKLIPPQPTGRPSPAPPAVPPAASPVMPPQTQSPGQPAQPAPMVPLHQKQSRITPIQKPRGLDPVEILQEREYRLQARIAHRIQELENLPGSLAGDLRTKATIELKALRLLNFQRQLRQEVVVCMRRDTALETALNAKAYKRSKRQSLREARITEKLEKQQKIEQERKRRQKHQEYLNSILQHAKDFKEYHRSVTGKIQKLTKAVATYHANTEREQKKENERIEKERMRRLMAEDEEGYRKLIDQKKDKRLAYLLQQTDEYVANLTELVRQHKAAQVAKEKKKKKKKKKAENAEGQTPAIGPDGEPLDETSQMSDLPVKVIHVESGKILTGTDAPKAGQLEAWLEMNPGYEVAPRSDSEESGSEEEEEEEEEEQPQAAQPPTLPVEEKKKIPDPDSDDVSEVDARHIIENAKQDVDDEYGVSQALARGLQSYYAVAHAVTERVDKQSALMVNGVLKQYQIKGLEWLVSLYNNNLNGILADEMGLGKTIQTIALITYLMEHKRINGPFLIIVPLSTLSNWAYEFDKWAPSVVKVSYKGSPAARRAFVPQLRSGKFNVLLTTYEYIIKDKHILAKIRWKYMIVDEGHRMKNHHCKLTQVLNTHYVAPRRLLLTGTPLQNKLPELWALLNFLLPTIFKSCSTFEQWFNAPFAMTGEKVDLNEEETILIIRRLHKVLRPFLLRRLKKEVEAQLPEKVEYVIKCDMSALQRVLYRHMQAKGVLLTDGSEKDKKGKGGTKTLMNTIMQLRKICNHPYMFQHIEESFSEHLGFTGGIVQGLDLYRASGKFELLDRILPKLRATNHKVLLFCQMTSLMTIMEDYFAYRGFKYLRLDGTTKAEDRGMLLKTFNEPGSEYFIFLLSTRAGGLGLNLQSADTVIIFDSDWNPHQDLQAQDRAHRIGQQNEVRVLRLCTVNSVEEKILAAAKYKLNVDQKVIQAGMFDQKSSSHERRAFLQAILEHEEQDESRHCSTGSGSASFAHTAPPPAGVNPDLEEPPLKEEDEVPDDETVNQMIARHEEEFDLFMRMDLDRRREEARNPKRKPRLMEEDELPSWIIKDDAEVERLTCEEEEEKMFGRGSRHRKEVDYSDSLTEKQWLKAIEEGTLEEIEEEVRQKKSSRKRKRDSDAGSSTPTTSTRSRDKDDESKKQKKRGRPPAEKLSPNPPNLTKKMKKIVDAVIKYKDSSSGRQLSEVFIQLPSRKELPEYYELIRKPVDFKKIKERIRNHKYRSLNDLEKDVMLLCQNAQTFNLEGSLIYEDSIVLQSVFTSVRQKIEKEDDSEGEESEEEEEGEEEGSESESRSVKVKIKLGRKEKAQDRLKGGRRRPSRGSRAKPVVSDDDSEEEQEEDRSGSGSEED
UniProt Q15388: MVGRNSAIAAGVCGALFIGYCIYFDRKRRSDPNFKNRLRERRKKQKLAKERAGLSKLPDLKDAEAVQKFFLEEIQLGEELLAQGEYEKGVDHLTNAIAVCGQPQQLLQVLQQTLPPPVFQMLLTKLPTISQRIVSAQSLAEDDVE
UniProt P21796: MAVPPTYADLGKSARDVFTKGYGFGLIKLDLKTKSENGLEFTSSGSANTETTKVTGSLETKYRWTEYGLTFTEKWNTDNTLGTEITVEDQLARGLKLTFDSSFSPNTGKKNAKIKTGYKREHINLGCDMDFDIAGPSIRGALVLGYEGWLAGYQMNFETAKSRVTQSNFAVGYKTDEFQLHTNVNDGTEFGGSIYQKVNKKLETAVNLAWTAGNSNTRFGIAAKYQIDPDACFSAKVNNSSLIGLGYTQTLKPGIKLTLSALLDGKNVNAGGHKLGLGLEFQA

No constants are given. Whether binding was seen depends on the method and setting. For some of these results: Binding seen in cells or lysates may run through a third protein. Some binding calls cover weakened binding; strength is not graded here.

Assay [1] has as its target eGFP-FUS P525L (UniProt P35637). Nature of the assay: co-IP; non-LLPS conditions: eGFP-FUS captured from HEK293T lysate by anti-GFP nanobodies on magnetic beads; 75 mM HEPES pH7.3, 100 mM KOAc, 0.5 mM DTT, 0.5% NP40, RNase inhibitor; 3 h at 4°C; 5 washes in 2x lysis buffer; western blot.
Assay [2] deals with eGFP-GSG15-FUS (wild type eGFP-FUS) (UniProt P35637). Described as above.
The target of assay [3] is eGFP-FUS P525L (UniProt P35637). In words: purification of formaldehyde-stabilised FUS droplets by fluorescence-activated particle sorting, western blot; LLPS conditions: HEK293T lysate concentrated about 2-fold, eGFP-FUS droplets stabilised with 0.1% formaldehyde for 8 min at room temperature, sorted by eGFP fluorescence and side scatter, pelleted and washed in PBS; western blot. For orientation: A western blot detects proteins with antibodies after separation by electrophoresis.

Assay [4] addresses eGFP-GSG15-FUS (wild type eGFP-FUS) (UniProt P35637). Described as above.
The target of assay [5] is FLAG-FUS (in HeLa cells) (UniProt P35637). Nature of the assay: proximity ligation; HeLa cells transfected with FLAG-FUS or FLAG-FUS P525L; intact cells.
The target of assay [6] is FLAG-FUS P525L (in HeLa cells) (UniProt P35637). The assay is described as above.
Assay [7] concerns the target FLAG-tagged FUS P525L (in 293T cells) (UniProt P35637). In words: co-IP; in situ DSP/DTME crosslinking of 293T cells transfected with FLAG-tagged FUS P525L, then immunoprecipitation from total extracts; crosslinked sample.
Assay [8] shares this target. Nature of the assay: condition: only without in situ DSP/DTME crosslinking; co-IP; immunoprecipitation from total extracts of 293T cells transfected with FLAG-tagged FUS P525L; uncrosslinked sample.

Take CPSF6 (from UniProt Q16630 1-551): the binding entry in assay [1] is on record as “no binding (condition: non-LLPS conditions)”; in assay [2], “no binding (condition: non-LLPS conditions)”; in assay [3], “binds”; in assay [4], “binds”.

For “CPSF6 (in HeLa cells) (from UniProt Q16630 1-551)”, the binding entry in assay [5] and in assay [6] was “binds” throughout.

Consider SMARCA4 (from UniProt P51532 1-1647), for which the binding result is reported as “no binding (condition: non-LLPS conditions)” in assay [1], “no binding (condition: non-LLPS conditions)” in assay [2], “binds” in assay [3] and “binds” in assay [4].

As for “SMARCA4 (in HeLa cells) (from UniProt P51532 1-1647)”, the binding entry in assay [5] and in assay [6] was “binds” each time.

As to TOM-20 (from UniProt Q15388 1-145), the binding entry is reported as “binds” in assay [7]; “no binding” in assay [8]; “no binding (condition: non-LLPS conditions)” in assay [1]; “no binding (condition: non-LLPS conditions)” in assay [2]; “binds” in assay [3]; “binds” in assay [4].

As to “TOM-20 (in HeLa cells) (from UniProt Q15388 1-145)”, the binding entry in assay [5] and in assay [6] was “binds” throughout.

Regarding VDAC1 (from UniProt P21796 1-283), the binding entry in assay [1] is listed as “no binding (condition: non-LLPS conditions)”; in assay [2], “no binding (condition: non-LLPS conditions)”; in assay [3] it was “binds”; in assay [4], “binds”.

Turning to “VDAC1 (in HeLa cells) (from UniProt P21796 1-283)”, the binding result in assay [5] and in assay [6] was “binds” in each case.

As for hnRNP K (from UniProt P61978 1-463), the results for the binding entry in assay [7] and in assay [8] were “binds” and “no binding”, respectively.
